What all share (test): HotSpot kinase assay
Conditions in all cases: read-out: % Enzyme Activity (relative to DMSO control), 10 uM

For experiment [1], the target named is T1, CAMK1a (Homo sapiens, UniProt Q14012).
T1 construct: purchased Reaction Biology (assay service; panel enzyme)
It is filed as biochemical.

Experiment [2] has as its target T2, CAMK2g (Homo sapiens, UniProt Q13555).
T2 construct: purchased Reaction Biology (assay service; panel enzyme)
Format: biochemical.

Experiment [3] concerns the target T3, ZAP70 (Homo sapiens, UniProt P43403).
T3 sequence (P43403 1-619): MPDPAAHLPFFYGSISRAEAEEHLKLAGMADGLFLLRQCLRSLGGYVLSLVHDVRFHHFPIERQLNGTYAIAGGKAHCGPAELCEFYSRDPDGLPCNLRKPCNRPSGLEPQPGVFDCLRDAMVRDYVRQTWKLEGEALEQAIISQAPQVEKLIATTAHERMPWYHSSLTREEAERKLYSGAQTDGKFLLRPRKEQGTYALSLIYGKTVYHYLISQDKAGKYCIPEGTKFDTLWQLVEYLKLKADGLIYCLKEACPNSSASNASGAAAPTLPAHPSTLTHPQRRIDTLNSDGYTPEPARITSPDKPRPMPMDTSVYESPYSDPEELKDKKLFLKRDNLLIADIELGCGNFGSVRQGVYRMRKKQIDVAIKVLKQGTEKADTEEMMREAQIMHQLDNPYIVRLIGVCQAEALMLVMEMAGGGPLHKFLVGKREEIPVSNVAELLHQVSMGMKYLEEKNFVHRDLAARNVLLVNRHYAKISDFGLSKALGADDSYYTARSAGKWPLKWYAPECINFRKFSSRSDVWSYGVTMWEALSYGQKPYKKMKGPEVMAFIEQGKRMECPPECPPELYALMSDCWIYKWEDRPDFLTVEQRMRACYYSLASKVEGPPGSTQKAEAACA

The target in experiment [4] is T4, DCAMKL1 (Homo sapiens, UniProt O15075).
T4 sequence (O15075 1-740): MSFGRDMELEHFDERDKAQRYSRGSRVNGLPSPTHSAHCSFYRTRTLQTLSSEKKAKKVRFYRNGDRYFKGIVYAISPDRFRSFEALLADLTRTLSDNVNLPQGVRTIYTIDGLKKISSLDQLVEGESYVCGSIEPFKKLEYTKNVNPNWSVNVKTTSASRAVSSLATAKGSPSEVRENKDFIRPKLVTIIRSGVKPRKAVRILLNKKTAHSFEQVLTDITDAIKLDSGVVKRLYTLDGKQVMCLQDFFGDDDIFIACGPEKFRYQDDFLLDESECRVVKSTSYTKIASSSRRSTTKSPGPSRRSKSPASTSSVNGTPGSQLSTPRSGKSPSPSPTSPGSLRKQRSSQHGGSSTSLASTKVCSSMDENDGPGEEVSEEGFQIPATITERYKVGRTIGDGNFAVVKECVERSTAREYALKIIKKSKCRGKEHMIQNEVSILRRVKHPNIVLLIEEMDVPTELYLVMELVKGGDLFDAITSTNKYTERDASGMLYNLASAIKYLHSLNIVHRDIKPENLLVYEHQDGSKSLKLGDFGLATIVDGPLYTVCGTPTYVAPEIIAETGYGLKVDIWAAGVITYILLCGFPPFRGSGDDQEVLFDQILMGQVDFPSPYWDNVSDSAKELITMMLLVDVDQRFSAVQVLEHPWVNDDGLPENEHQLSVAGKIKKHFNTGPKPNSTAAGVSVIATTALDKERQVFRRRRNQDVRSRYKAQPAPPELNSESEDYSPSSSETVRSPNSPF

Experiment [5] concerns the target PKAcg (Homo sapiens, UniProt P22612).
Experiment [6] deals with ERK5/MAPK7 (Homo sapiens, UniProt Q13164).
The target of experiment [7] is T5, Aurora A (Homo sapiens, UniProt O14965).
T5 sequence (O14965 1-403): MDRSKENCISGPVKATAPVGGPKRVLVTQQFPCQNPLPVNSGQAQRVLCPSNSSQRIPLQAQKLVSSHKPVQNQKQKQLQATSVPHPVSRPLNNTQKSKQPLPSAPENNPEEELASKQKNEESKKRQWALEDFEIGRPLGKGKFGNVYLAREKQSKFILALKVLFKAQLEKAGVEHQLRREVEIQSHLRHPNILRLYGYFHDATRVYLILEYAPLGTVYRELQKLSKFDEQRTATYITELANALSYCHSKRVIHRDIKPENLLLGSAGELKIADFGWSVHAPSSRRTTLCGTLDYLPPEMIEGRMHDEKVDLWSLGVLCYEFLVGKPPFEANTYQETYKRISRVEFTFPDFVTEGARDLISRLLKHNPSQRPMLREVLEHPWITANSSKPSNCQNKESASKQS

Experiment [8] addresses T6, MST2/STK3 (Homo sapiens, UniProt Q13188).
T6 sequence (Q13188 1-491): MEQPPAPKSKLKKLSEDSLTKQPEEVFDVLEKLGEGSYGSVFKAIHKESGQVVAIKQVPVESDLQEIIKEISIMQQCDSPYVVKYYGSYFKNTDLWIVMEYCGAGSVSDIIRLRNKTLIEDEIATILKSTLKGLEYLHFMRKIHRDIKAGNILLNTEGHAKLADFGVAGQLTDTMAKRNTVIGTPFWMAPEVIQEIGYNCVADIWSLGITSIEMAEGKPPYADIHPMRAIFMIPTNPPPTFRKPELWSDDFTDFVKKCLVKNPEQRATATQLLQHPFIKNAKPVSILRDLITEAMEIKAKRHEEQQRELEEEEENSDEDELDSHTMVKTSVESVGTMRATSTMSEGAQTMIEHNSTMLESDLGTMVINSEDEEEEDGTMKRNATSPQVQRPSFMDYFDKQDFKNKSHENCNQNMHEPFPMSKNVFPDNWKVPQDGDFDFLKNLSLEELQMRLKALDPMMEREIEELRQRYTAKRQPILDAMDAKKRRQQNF

Experiment [9] has as its target T7, P38g (Homo sapiens, UniProt P53778).
T7 sequence (P53778 1-367): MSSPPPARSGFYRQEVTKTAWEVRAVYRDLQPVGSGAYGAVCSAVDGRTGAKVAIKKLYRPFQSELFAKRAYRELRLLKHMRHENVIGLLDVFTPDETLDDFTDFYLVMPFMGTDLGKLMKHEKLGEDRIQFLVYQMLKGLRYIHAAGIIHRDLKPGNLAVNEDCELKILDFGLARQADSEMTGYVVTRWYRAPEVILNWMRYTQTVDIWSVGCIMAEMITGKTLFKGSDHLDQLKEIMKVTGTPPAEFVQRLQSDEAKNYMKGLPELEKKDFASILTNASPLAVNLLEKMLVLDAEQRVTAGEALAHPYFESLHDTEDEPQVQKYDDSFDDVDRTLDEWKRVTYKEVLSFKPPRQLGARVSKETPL

Experiment [10] deals with T8, GRK2 (Homo sapiens, UniProt P25098).
T8 sequence (P25098 1-689): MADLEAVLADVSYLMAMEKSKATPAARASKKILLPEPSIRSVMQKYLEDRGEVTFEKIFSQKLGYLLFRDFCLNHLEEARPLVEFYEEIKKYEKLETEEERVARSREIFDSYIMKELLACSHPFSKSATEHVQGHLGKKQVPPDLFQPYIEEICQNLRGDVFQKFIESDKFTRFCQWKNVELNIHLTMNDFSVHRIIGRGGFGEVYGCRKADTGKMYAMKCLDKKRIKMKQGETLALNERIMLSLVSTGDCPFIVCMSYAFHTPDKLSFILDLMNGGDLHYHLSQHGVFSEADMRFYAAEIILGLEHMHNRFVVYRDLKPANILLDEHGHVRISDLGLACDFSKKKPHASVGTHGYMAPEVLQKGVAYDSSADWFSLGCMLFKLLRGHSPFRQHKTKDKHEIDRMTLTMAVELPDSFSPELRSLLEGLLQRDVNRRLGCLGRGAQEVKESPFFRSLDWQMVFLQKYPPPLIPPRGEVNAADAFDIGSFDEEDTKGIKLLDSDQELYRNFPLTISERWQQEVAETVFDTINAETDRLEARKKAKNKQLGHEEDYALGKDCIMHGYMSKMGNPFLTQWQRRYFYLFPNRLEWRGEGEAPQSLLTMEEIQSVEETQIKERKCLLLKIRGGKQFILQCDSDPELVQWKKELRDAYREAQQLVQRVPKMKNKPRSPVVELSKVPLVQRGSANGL

Regarding `C#C[C@@](C)(c1ccc(Cl)cc1)c1csc(NC(=O)c2c(F)cc(N3CCNCC3)cc2F)n1` (stereo in doubt) [DF-003], the remaining activity at 10 µM in experiment [1] came to 2.85%; in [2], 4.13%; in experiment [3], 74.6%; in [4], 77.2%; in experiment [5], 93.2%; in [6], 98.1%. For the same compound, the remaining activity at 10 µM in experiment [7] was 99.7%; in [8], 109%; in experiment [9], 110%; in experiment [10] it was 111%.

The values above are taken from PMC12420824, “Discovery of a selective alpha-kinase 1 inhibitor for the rare genetic disease ROSAH syndrome” (Nature Communications, 2025).
